Measured values taken from paper PMC4336329 (PLoS ONE, 2015).
Screen size: about 310,000 compounds; about 14,000 (4.5%) showed an effect of 50% or more. The effect is printed as a negative number. The list shows a part of the results.

target: human ether-à-go-go-related gene (hERG) potassium channel (human, UniProt Q12809); assay: primary screen, population patch clamp on CHO cells stably expressing hERG
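Further: peak tail current of the secondary pulse compared with the same well before compound.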

human ether-à-go-go-related gene (hERG) potassium channel, sequence (Q12809 whole entry, looked up): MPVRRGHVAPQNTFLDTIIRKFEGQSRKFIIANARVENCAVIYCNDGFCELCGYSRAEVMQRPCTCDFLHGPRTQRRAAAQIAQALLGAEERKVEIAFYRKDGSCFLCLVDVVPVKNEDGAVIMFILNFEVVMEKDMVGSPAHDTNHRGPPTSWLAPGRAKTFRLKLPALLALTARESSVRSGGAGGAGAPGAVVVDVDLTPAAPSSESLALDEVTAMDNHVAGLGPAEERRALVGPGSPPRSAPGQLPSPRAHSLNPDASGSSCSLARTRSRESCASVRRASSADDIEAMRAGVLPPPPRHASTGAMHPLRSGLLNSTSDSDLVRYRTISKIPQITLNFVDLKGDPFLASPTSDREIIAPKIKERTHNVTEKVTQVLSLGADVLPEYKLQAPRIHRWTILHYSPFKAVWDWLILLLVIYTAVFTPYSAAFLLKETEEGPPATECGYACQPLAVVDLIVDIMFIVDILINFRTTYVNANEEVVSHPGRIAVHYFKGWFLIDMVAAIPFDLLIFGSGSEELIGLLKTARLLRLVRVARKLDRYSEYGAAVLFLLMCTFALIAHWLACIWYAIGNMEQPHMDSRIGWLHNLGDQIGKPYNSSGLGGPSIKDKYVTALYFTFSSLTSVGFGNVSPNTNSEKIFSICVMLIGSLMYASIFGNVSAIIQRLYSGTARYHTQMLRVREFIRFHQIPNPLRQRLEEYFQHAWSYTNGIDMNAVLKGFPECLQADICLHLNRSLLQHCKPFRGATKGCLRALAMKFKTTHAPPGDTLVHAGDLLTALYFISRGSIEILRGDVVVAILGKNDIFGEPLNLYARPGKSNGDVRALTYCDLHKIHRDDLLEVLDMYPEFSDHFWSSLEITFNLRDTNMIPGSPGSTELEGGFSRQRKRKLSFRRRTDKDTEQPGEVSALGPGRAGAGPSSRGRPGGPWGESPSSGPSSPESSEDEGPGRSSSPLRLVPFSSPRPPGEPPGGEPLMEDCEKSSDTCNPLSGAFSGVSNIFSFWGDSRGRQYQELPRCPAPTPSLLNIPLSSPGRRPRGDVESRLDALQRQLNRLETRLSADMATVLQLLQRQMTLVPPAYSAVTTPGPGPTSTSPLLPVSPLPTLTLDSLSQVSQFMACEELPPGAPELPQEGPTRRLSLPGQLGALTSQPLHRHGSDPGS

Structure (SMILES) | hERG current change (%, negative = inhibition) at 10uM
Cc1ccc(SC(CC(=O)c2ccc(C)cc2)C(=O)O)cc1 (stereo not shown) | 9.22%
C/C(CCc1c[nH]c2ccccc12)=N\O | -1.39%
Cc1ccc(Nc2nc(CSc3n[nH]c(N)n3)cs2)cc1 | 14.3%
O=C(O)c1cccc2c1C(=O)c1ccc(N3CCCCC3)cc1S2(=O)=O | 9.28%
COc1ccc(Nc2nc(-c3cc4cccc(OC)c4oc3=O)cs2)cc1 | 11.6%
O=C(NNC(=O)c1ccco1)c1ccc(NS(=O)(=O)c2cccs2)cc1 | 14.9%
O=C(OCC(=O)N(C1CCCCC1)C1CCCCC1)c1ccccc1O | 10.5%
COc1ccc(C(=O)NCc2nnc(SCC(=O)Nc3nc4ccccc4s3)o2)cc1 | 9.66%
COc1ccc(C(=O)NC(CC(=O)O)c2cc([N+](=O)[O-])ccc2Cl)cc1 (stereo not shown) | 24%
COc1ccc(N=Nc2ccc(N)nc2N)cc1 | 18.5%
COc1ccc(Cl)cc1NCC(=O)Nc1ccc(OC)c(S(=O)(=O)N2CCCCC2)c1 | -9.19%
Cc1cc(C)n(-c2cc(C(=O)O)cc(C(=O)O)c2)n1 | 14.7%
O=C(c1cc2sccc2n1Cc1ccc(F)cc1)N1CCCc2ccccc21 | 15.3%
CCOc1ccccc1OCCCC(=O)N1CCN(S(=O)(=O)c2cccc(F)c2)CC1 | -28.6%
CCC(=O)NC(C)c1cc(Cl)c2ccccc2c1O (stereo not shown) | -4.05%
O=C(O)COc1ccc(NC(=O)c2ccc(NC(=O)c3ccco3)cc2)cc1 | 8.95%
CCOC(=O)c1c(N)sc(C(O)(C(F)(F)F)C(F)(F)F)c1-c1ccc(Cl)cc1 | -4.79%
Cc1[nH]nc2c1/C(=N/O)CC(c1ccccc1)C2 (stereo not shown) | 8.29%
O=S(=O)(c1ccc(NC2CCCc3ccccc32)nc1)N1CCOCC1 (stereo not shown) | 2.1%
CCCC(C)n1[nH]c(=O)c2c1NC(=O)CSC2c1ccccc1 (stereo not shown) | -6.71%

Structure (SMILES) | hERG current change (%, negative = inhibition) at 10uM
NNc1nc2c(-c3ccc(Cl)cc3)nnn2c2ccccc12 | 3.39%
COc1cccc(/C=N/NC(=O)CCNc2n[nH]c(=O)[nH]c2=O)c1OC | 15.9%
C=CCNC(=O)CSc1ncc2c(n1)-c1c(csc1SC)CC2 | -11.2%
COc1ccc(CN2CCN(C3CCSCC3)CC2CCO)c(C)c1C (stereo not shown) | -51.1%
Cc1cc(C)n(S(=O)(=O)/C=C/c2ccccc2)n1 | -0.911%
Cc1c(OCC(=O)N2CCC[C@@H]2C(=O)O)ccc2c3c(c(=O)oc12)CCC3 | 6.59%
O=C(CCC(=O)OCc1cccc([N+](=O)[O-])c1)Nc1ccccc1Cl | 11.4%
COc1ccc(N2CCN(C(=O)C(Cc3ccccc3)n3cccc3)CC2)cc1 (stereo not shown) | -13.3%
Cc1ccc(-c2nnnn2-c2ccccc2C(=O)O)cc1 | 14.6%
CCCc1c(C(=O)Nc2ccc(N3CCOCC3)cc2)cnn1-c1ccccc1 | 8.44%
Cc1ccc(CSc2nc3ccccc3c(=O)[nH]2)cc1 | 2.97%
COc1ccc(NS(=O)(=O)c2cc(NC(=O)/C=C/c3ccccc3OC)ccc2N2CCCCC2)cc1 | 15.7%
O=C(COC(=O)CCc1nc2ccccc2s1)Nc1ccc(S(=O)(=O)N2CCOCC2)cc1 | -32.9%
CCOc1ccccc1NC(=O)CSc1ccc(-c2sc(C)nc2C)nn1 | 0.811%
Cc1cc(C(=O)N/N=C/C=C/c2ccccc2)c(C)o1 | -5.38%
CC(=O)N1CCN(Cc2nc3ccc(Cl)cc3n2CCO)CC1 | -4.05%
O=C(Nc1ccc(Cl)c(C(F)(F)F)c1)N1CCCC(O)C1 (stereo not shown) | 10.9%
COc1cccc(C(=O)Nc2ccc(C(=O)NCC3CCCO3)cc2)c1 (stereo not shown) | 9.5%
O=C(O)c1cccc(C(=O)O)c1Br | 7.35%
Brc1cccc(OCCN2CCc3ccccc3C2)c1.Cl | -5.84%

Structure (SMILES) | hERG current change (%, negative = inhibition) at 10uM
Oc1ccc[n+](CC(O)c2ccccc2)c1.[Br-] (stereo not shown) | 18.7%
Cc1cc(OCC(=O)NCc2ccncc2)c2c3c(c(=O)oc2c1)CCC3 | -10.3%
Cc1ccccc1Nc1nnc(C)c(=O)n1N | -0.0645%
COc1cc(-c2nnc(-c3ccncc3)o2)ccc1OCc1ccccc1 | 4.05%
Cc1ccc(S(=O)(=O)N2CCOCC2)cc1NC(=O)Cn1cc(C(F)(F)F)cc(Cl)c1=O | 10.1%
CC1=C(OC(=O)c2ccccc2)C(C)(C)C(c2ccccc2)OC1=O (stereo not shown) | -5.7%
COCCNC(=O)c1ccccc1NC(=O)c1ccccc1N(C)S(C)(=O)=O | 20.6%
CC(C)c1nc(NCCO)c(C#N)c2c1CCCC2 | -7.11%
COCc1[nH]nc2c1C(c1ccsc1)C(C#N)=C(N)O2 (stereo not shown) | 10.9%
CN(C)S(=O)(=O)c1ccc(Cl)c(NC(=O)COc2ccccc2[N+](=O)[O-])c1 | -13.1%
c1ccc(OCCSc2nc3ccccc3[nH]2)cc1 | 6.94%
Cn1nc(-c2ccccc2)cc1NC(=O)c1ccc(Cl)cc1 | -9%
COc1ccc(NC(=O)Nc2nnc(C(C)(C)C)s2)cc1 | -18.8%
Cc1cc(C(=O)CN2C(=O)c3ccccc3C2=O)c(C)n1C1CC1 | -1.31%
CCOC(=O)N1CCN(S(=O)(=O)c2cc(Br)cc3c2N(C(=O)C2CC2)CC3)CC1 | 3.54%
NS(=O)(=O)c1ccc(CCNC(=O)c2cc3ccccc3s2)cc1 | 16.9%
CCc1noc(C)c1C(=O)N1CCCSC1=Nc1ccccc1C(C)C | 0.786%
COc1ccc(CNC(=O)COC(=O)CCc2nc3ccccc3c(=O)[nH]2)cc1 | 22.5%
